These results are taken from the supplement of paper PMC11417369.

± gives the standard deviation of the averaged measurements. This is one part of the list.

The test concerns PfAP2-LT AP2 domain (GST-tagged). Put plainly: gcPBM binding intensity (ln(normalized median fluorescence intensity)); higher = stronger DNA binding. In short, it runs like this:
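An Agilent 4 × 180k array carrying primer-extended double-stranded 36-bp intergenic genomic probes and negative controls received GST-tagged P. falciparum DNA-binding domains expressed in E. coli, about 25 μg on average, for 1 h. The binding buffer contained 1× PBS, 1% milk, 0.2 mg/ml BSA, 0.5% salmon testes DNA and 0.03% Triton X-100. Binding intensity is the top Masliner-normalised natural-log median intensity across replicate spots of either probe orientation, read after Alexa488 anti-GST antibody staining and a 488 nm scan.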
For “TATGTGTAATATTTTTGTACAGAAAAAAAAAAAAAA [XGTACX_site7075]”, the “gcPBM binding intensity (ln)” value came out at 8.54 ± 0.41.
To “AAAAAAAAAAAAAACACACACATGCACATCATATTA [CACACA_site4467]” belongs 9.29 ± 0.28; to “TATTACTATGTTATAACTTTTTTAAACGTGATCATA [TGCATGCA_negctrl_site128]”, 8.56 ± 0.31; to “TATTTAAAAAGAAAAAAAAAAAAAAAAATACATATA [CACACA_negctrl_site164]”, 8.31 ± 0.52.
“AAAAAAAAAAAATATACACACTAATATATTTTTTTA [CACACA_site4604]”: the “gcPBM binding intensity (ln)” value is 8.59 ± 0.5.
With “TATTAAATTTATCGGAGTACATTTAAATGTATATAC [XGTACX_site7975]”, the “gcPBM binding intensity (ln)” value stood at 8.69 ± 0.3.
As to “ATATACTTATATATTGCACACATCTAATATTTTGAA [CACACA_site3165]”, the “gcPBM binding intensity (ln)” value was 9.01 ± 0.25.
With “TATAATATGTTTGATGGTACACGTAAACACCTTGCA [XGTACX_site1643]”, the “gcPBM binding intensity (ln)” value was 8.76 ± 0.49.
To “ATAACTAAATTATATTGTACAAAATAATTATATATT [XGTACX_site1188]” belongs 8.65 ± 0.29.
On to “CATATCAAAAAAAAATGTACACGTATATACAATACA [XGTACX_site2660]”, for which the “gcPBM binding intensity (ln)” value turned out to be 8.86 ± 0.51.
To “TATTATATATATAAATGTACATATTATTTTTCTTTT [XGTACX_site8670]” belongs 8.59 ± 0.51; to “GTATTTTTTTTCTTTTGTACATATATATAAAGAATA [XGTACX_site4569]”, 8.55 ± 0.38; to “AAGAATTTTCGATTTGCACACATTTGTAAAATAAAA [CACACA_site2354]”, 8.74 ± 0.38.
For the sequence “ATACACGTTTTACAATGTACAGAAAGTATACATAAT [XGTACX_site4585]”, the “gcPBM binding intensity (ln)” value was 8.98 ± 0.49.
For “TTTAATCAACAAAATCTACACACTAATATGAAATAT [CACACA_site9250]”, the “gcPBM binding intensity (ln)” value stood at 8.71 ± 0.39.
As for “TAATACTTAATGAACACATGCACATATACATAGTAT [TGCATGCA_site496]”, the “gcPBM binding intensity (ln)” value is 8.82 ± 0.47.
To “TGTTTCTAAGAATTTACACACAAAATATTTCTACAT [CACACA_site7846]” belongs 9.02 ± 0.45.
In the case of “AAAAAAAAAAATTGCACACAAAAAAAAAAAAAAAAA [CACACA_site2073]”, the “gcPBM binding intensity (ln)” value is 8.73 ± 0.64.
To “TTAAAAATTAAAAGTAGTACATATAATATAAACATT [XGTACX_site424]” belongs 8.63 ± 0.4.
For “TTTTTTTTTTTTTTTTGTACATATATATAAAAAATA [XGTACX_site2772]”, the “gcPBM binding intensity (ln)” value worked out at 8.12 ± 0.39.
For the sequence “AATTATACTCACGTTACACACACACTAGATATATAT [CACACA_site6133]”, the “gcPBM binding intensity (ln)” value came to 9.67 ± 0.27.
For “TAATATTACATTTATTGTACTTTGTTTTTATTTTAT [XGTACX_site1605]”, the “gcPBM binding intensity (ln)” value is 9.27 ± 0.45.
To “ATTGAAAAAATACAATGTACATAGTAATACAAAGAA [XGTACX_site4142]” belongs 9.18 ± 0.42; to “CCCACAATGGTTTATATACACACTGTTGCAAATTCT [CACACA_site3066]”, 8.93 ± 0.36; to “TTTATTCTAAAATATTAAAAATGATTTGTTTTTTCA [CACACA_negctrl_site1751]”, 8.05 ± 0.42.
To “TTATAAAAAAAAAAAAAAAAAAAAACCAATATAATA [CACACA_negctrl_site968]” belongs 8.31 ± 0.63; to “ATATGAACATTAAAAAAGTAAGGTATTCTCCCCTCT [CACACA_negctrl_site1299]”, 8.72 ± 0.32.
Regarding “GTATTATAAAAAGGAAGTACATATATACATATTATA [XGTACX_site1271]”, the “gcPBM binding intensity (ln)” value came to 8.77 ± 0.39.
Consider “CTTAAATCCATAATATGTACTTAAAAAGAAAAAATA [XGTACX_site4765]”, for which the “gcPBM binding intensity (ln)” value was 8.24 ± 0.47.
Consider “ATAATTATACAAAAGCGTACACGATATAAATCTACG [XGTACX_site8115]”, for which the “gcPBM binding intensity (ln)” value worked out at 8.79 ± 0.45.
As for “AGACAATTTTTTAGTACACACATATAGATATATAAA [CACACA_site6832]”, the figure is 8.75 ± 0.42; as for “ATGTGATAATTTAGGAGTACTGTCATAAGCATTTCT [XGTACX_site3091]”, 8.76 ± 0.4; as for “TTATAAATTTTTAATAGTACATAAAATTAAAGGTAA [XGTACX_site760]”, 8.3 ± 0.41.
For the sequence “TCATAAAAAGGAATCTTTAAGATATTTTATAAGCTC [XGTACX_negctrl_site18]”, the “gcPBM binding intensity (ln)” value is 8.39 ± 0.44.
To “TTTCTTTATTTATAATAATTTTTTATTAAAAATAGA [CACACA_negctrl_site1610]” belongs 8 ± 0.49; to “AATAAATGTCTGTTAATGCACACGATATGTCTATAT [CACACA_site2351]”, 9.2 ± 0.42.
In the case of “AGTGCATAATATTTATGTACGTATCACATATATTTT [XGTACX_site5166]”, the “gcPBM binding intensity (ln)” value came out at 8.83 ± 0.38.
Regarding “AGTAGTCTGGAGAAAAGTACACAGTATCTGGTAACA [XGTACX_site2034]”, the “gcPBM binding intensity (ln)” value was found to be 8.79 ± 0.57.
For the sequence “ACAAATAAAAAAATTACACACATATATAATATATAT [CACACA_site1361]”, the “gcPBM binding intensity (ln)” value worked out at 8.97 ± 0.4.
In the case of “AAAAATAAAATAAAATAAAATAAAAATAAAGAAAAA [CACACA_negctrl_site808]”, the “gcPBM binding intensity (ln)” value was 8.68 ± 0.71.
As for “TTAATTCTATACATAAATTATGTTTACATAAAGAAT [GTGCAC_negctrl_site246]”, the figure is 8.38 ± 0.42; as for “TATTAACTCAATAGCGCACACTTTTAATATTTTATA [CACACA_site4973]”, 8.85 ± 0.45.
For “ATTTGACACGTATATGCACACACCCGTAAGTGTCCA [CACACA_site8891]”, the “gcPBM binding intensity (ln)” value amounted to 9.57 ± 0.33.
With “GTAATTAAGATATATACACACAAAGGCTATTAAATA [CACACA_site6604]”, the “gcPBM binding intensity (ln)” value amounted to 9.08 ± 0.44.
On to “TATATAACTACAAGAACACACATATAAATATAAATA [CACACA_site7210]”, for which the “gcPBM binding intensity (ln)” value amounted to 9.06 ± 0.49.
On to “TATTGATAAAAAATATGTACATATATACATATATAT [XGTACX_site3821]”, for which the “gcPBM binding intensity (ln)” value was determined as 8.9 ± 0.48.
As for “ATATATATATATATATGTACGTAAACAAAAATTTAT [XGTACX_site6780]”, the figure is 9.31 ± 0.23; as for “ATGTATCGTAACAAATGTACAAGAGGATGTTTAGAC [XGTACX_site3355]”, 9.27 ± 0.47; as for “GATATATTTTGTTATGTAGATGTTGGTAGGAATTTT [GTGCAC_negctrl_site485]”, 8.78 ± 0.37.
To “GTATTTATATGATTAACACACATATGTGGATTAATA [CACACA_site1315]” belongs 8.78 ± 0.39.
As for “TATTATTTATATGATACACACGTACATATACACATA [CACACA_site9275]”, the “gcPBM binding intensity (ln)” value stood at 9.06 ± 0.38.
Regarding “CAACAAAAGAAACACACACACACAAACACAAAAAAA [CACACA_site3389]”, the “gcPBM binding intensity (ln)” value was 9.91 ± 0.16.
For “GGATATATTATATGTACACACATATATAACGGATAT [CACACA_site1309]”, the “gcPBM binding intensity (ln)” value was determined as 9.18 ± 0.44.
As for “TGTATACCTTAATATACACACATACATATATATATA [CACACA_site8370]”, the figure is 9.14 ± 0.15; as for “ATATACATATTTTTGACACACATTAGGAAAATATAT [CACACA_site4123]”, 8.86 ± 0.41.
As to “ATGTAATAAATACTACGTACATATATATGTGTTAAT [XGTACX_site3265]”, the “gcPBM binding intensity (ln)” value is 9.05 ± 0.41.
